Assay results reported in PubChem BioAssay AID463173 (ICCB-Longwood Screening Facility, Harvard Medical School, 2010).
About 1,700 (3.3%) of roughly 52,000 compounds were called active. Cut-off read from the data, not from the text of the source: active = survival mostly below about 52% (no sharp cut-off); inactive = mostly above about 56%. This is one part of the list.

The compounds below were run on Wild type (assay: S. aureus survival, RN4220 and DeltatarO strains – OD600, teichoic acid synthesis inhibitors, primary screen (AID 463173)). Conditions: S. aureus RN4220 wild type/DeltatarO growth, OD600, 18 h, active compounds read low, screened at 18.75 µg/mL (by protocol).

| SMILES | survival |
| --- | --- |
| Nc1ccc(CNc2ncn[nH]2)cc1 | inactive: 120% |
| COc1ccc(Cn2nnnc2C(C(C)C)N2CCc3ccccc32)cc1 (stereo not given) | inactive: 111% |
| Cc1ccc(Cn2c(-c3ccccc3)nc3ccccc32)cc1 | active: 8% |
| Cc1ccc(-c2nc3ccccc3n3c(-c4ccccc4)c4c(=O)n(C)c(=O)n(C)c4c23)cc1 | inactive: 95% |
| CCOc1ccccc1NC(=O)Cn1ccn(-c2ccccc2)c(=O)c1=O | inactive: 82% |
| COc1ccccc1N1CCN(c2csc3ccc(Cl)cc3c2=O)CC1 | inactive: 138% |
| CCCCNC(=O)c1cc(Sc2ccc(OCC)cc2)nc2ccccc12 | inactive: 66% |
| Cc1ccc(C)c(Cn2c(=O)n(CCCCC(=O)NCc3ccccc3Cl)c(=O)c3ccccc32)c1 | inactive: 127% |
| CCn1ccc2cc(S(=O)(=O)N3CCC(C(=O)NCc4cccc(C)c4)CC3)ccc21 | inactive: 53% |
| Cc1ccc(-c2c(C(=O)Nc3ccc(F)c(F)c3)oc(=O)c3ccccc23)cc1 | inactive: 92% |
| O=C(NCCSCc1ccc(Cl)cc1)C1CCN(S(=O)(=O)Cc2ccccc2)CC1 | inactive: 83% |
| CCn1cc(C(=O)NCc2ccc(C)cc2)c(=O)c2cc(S(=O)(=O)N3CCC(C)CC3)ccc21 | inactive: 128% |
| CN(C)c1ccc(CNC(=O)c2cc3cc(S(=O)(=O)N4CCCCC4)ccc3n2C)cc1 | active: 0% |
| O=C(CN1C(=O)C2CCCCN2c2ccc(C(=O)N3CCCC3)cc21)NCc1cccc(Cl)c1 (stereo not given) | inactive: 54% |
| Cc1ccc(Cl)c2sc(NC(=O)CS(=O)(=O)c3ccc(Cl)cc3)nc12 | inactive: 90% |
| CCOc1ccc(CNS(=O)(=O)c2c(C(=O)N3CCCCCC3)c(C)n(C)c2C)cc1OC | inactive: 68% |
| Cc1ccc(CNC(=O)Cc2coc3cc(C)cc(C)c23)cc1 | inactive: 119% |
| COc1ccc(C=Nc2ccc3[nH]ncc3c2)c(O)c1 | inactive: 88% |
| Cc1ccc(NC(=O)Nc2nnc(N3CCCC3)s2)c(C)c1 | inactive: 86% |
| CCN(CC)S(=O)(=O)c1ccc2c(c1)c(=O)c(C(=O)NCc1ccccc1)cn2C | inactive: 76% |
| CCCCN(C)C(=O)C1CCCN(c2ncnc3onc(-c4ccc(F)cc4)c23)C1 (stereo not given) | inactive: 73% |
| Cc1cccc(N2CCN(C(=O)CSCc3ccc(F)cc3)CC2)c1C | inactive: 75% |
| O=C(Nc1cccc(-n2cnnn2)c1)c1ccccc1 | inactive: 102% |

| SMILES | survival |
| --- | --- |
| O=C(NCc1ccccc1)c1ccc(NC(=O)c2nsc3ccccc23)cc1 | inactive: 55% |
| COc1ccc(CNC(=O)CCC(=O)N2CC3CCCN3c3ccccc32)cc1 (stereo not given) | inactive: 73% |
| COc1ccccc1CNC(=O)c1ccc(CS(=O)(=O)c2ccccc2C)o1 | inactive: 73% |
| CCCNC(=O)c1ccc(-n2c(-c3ccccc3)cc3c2CCCCC3)cc1 | inactive: 116% |
| CCOc1cccc(CC(=O)Nc2ccc3nc(N4CCCCC4)cc(C)c3c2)c1OCC | inactive: 129% |
| CC(=O)N1CCCc2cc(S(=O)(=O)N3CCC(C(=O)NCc4ccc(N(C)C)cc4)CC3)ccc21 | inactive: 66% |
| COc1cc(CN(CC2CCCO2)C(=O)c2ccc(F)cc2)cc(OC)c1OC (stereo not given) | inactive: 86% |
| CCN1CCN(C(C)C(=O)Nc2ccc3c(c2)OCO3)CC1 (stereo not given) | inactive: 107% |
| Nn1c(C2CC2)nc2cc(Cl)ccc2c1=O | inactive: 108% |
| CCC(=O)N1CCc2cc(S(=O)(=O)NCCC(=O)NCc3ccccc3Cl)ccc21 | inactive: 83% |
| Cc1ccccc1-c1noc(C(C)NC(=O)c2ccco2)n1 (stereo not given) | inactive: 85% |
| O=C(NC1C2CC3CC(C2)CC1C3)c1cc2ccccc2o1 (stereo not given) | inactive: 100% |
| CSc1cccc(N=C2C(=O)Nc3ccccc32)c1 | inactive: 108% |
| COc1ccccc1CNC(=O)C(CC(C)C)NS(=O)(=O)c1ccc2c(c1)oc(=O)n2C (stereo not given) | inactive: 90% |
| Cn1c(=NC(=O)c2ccc3c(c2)OCCO3)sc2cc(S(C)(=O)=O)ccc21 | inactive: 71% |
| COC(=O)c1ccc(-n2nnc(-c3nc(-c4ccc5c(c4)OCO5)no3)c2C)cc1 | inactive: 105% |
| CC(C)c1nc2ccc(C(=O)NCCCN3CCN(c4ccccc4F)CC3)cc2o1 | inactive: 78% |
| CCN(C(=O)CN(C)S(=O)(=O)c1ccc2c(c1)c(=O)n(C)c(=O)n2C)c1ccc(OC)cc1 | inactive: 77% |
| O=C1CC(C(=O)NCc2ccccc2)N=C(N2CCCCC2)N1 (stereo not given) | inactive: 98% |
| Cc1cc(Br)ccc1NC(=O)CCS(=O)(=O)c1cccc2nsnc12 | inactive: 124% |
| CC(=O)NCCNc1nc2c(S(=O)(=O)c3ccc(C)c(C)c3)nnn2c2ccc(Cl)cc12 | inactive: 80% |
| CCOC(=O)c1ccc(NC(=O)C2CCCN(c3ccc(Sc4ccc(C)cc4)nn3)C2)cc1 (stereo not given) | inactive: 80% |
| Cc1sc2nc(C(C)C)n3c(=S)[nH]nc3c2c1C | inactive: 103% |

| SMILES | survival |
| --- | --- |
| Cc1cc(C)cc(-n2cnc3ccccc3c2=O)c1 | inactive: 106% |
| N#Cc1ccc(CN2C(=O)c3ccccc3Sc3ccc(C(=O)OCc4ccco4)cc32)cc1 | inactive: 132% |
| CCOc1ccc2nc(NC(=O)CS(=O)(=O)c3ccc(Cl)cc3)sc2c1 | inactive: 75% |
| Cc1ccc(C2c3c(oc4ccccc4c3=O)C(=O)N2c2ccc(C)cn2)cc1 (stereo not given) | inactive: 64% |
| Cc1ccc(C(C)C)c(OCC(=O)Nc2ccc(S(=O)(=O)Nc3onc(C)c3C)cc2)c1 | inactive: 159% |
| CCCNC(=O)c1cnn2c(C)c(Cc3c(C)cc(C)cc3C)c(C)nc12 | inactive: 65% |
| COc1ccc(NC(=O)c2cc3nc(-c4ccc(Cl)c(Cl)c4)cc(C(F)(F)F)n3n2)c(OC)c1 | inactive: 75% |
| Cc1sc2ncn(CC(=O)Nc3ccc(F)cc3F)c(=O)c2c1S(=O)(=O)N1CCC(C)CC1 | inactive: 93% |
| CCOc1ccccc1NC(=O)N1CCC(n2c(C)nc3cccnc32)CC1 | inactive: 78% |
| O=C1CCCC2=C1C(c1ccc3c(c1)OCO3)c1c([nH]c(=O)[nH]c1=O)N2 (stereo not given) | inactive: 111% |
| COc1ccc(CNC(=O)CCc2cn(C)c3ccccc23)cc1 | inactive: 83% |
| COc1ccc(C(=O)NC2CC(=O)N(c3ccc4c(c3)OCCO4)C2)cc1 (stereo not given) | inactive: 143% |
| CN(C)c1cc(N)c2c(n1)CCC2 | inactive: 86% |
| Cc1c(-c2nnc(SCC(=O)Nc3ccccc3F)o2)nnn1-c1ccc(F)cc1 | inactive: 72% |
| Cc1ccc(C(=O)N/C(=C/c2ccc3c(c2)OCO3)C(=O)O)cc1 | inactive: 104% |
| CCNC(=O)Nc1ccc2nc(C)n(Cc3cccc(Cl)c3)c(=O)c2c1 | inactive: 115% |
| COc1cccc(N2CCN(S(=O)(=O)c3cn(C)c(C)n3)CC2)c1 | inactive: 94% |
| CC(NC(=O)c1ccc(F)cc1)C(=O)O (stereo not given) | inactive: 106% |
| Cc1ccc(CCNC(c2ccc(F)cc2)c2nnc(-c3ccccc3Cl)o2)cc1 (stereo not given) | active: 0% |
| CCOc1ccc(CNC(=O)c2cccc(NC(=O)N3CCSc4ncccc43)c2)cc1 | inactive: 100% |
| CCn1c(C(=O)N2CCC(C(=O)N3CCN(c4cc(C)ccc4C)CC3)CC2)cc2sccc21 | inactive: 41% |
| COc1ccc(CNC(=O)c2ccc3nc(CCc4ccccc4)oc3c2)cc1OC | inactive: 71% |
| CC(=O)N1CCc2cc(S(=O)(=O)NC(CC(C)C)C(=O)Nc3ccc(C(C)C)cc3)ccc21 (stereo not given) | inactive: 73% |

| SMILES | survival |
| --- | --- |
| CC(C)Cn1cc(NC(=O)Nc2cccc(C(F)(F)F)c2)c2ccccc2c1=O | inactive: 54% |
| CCOC(=O)N1CCc2c(sc3c2c(=O)n(Cc2ccccc2)c(=O)n3Cc2cc(C)ccc2C)C1 | inactive: 88% |
| CC(=O)N1c2ccc(S(=O)(=O)N3CCCCCC3)cc2CC1C(=O)NC(C)C (stereo not given) | inactive: 68% |
| CCOC(=O)c1c(C)sc(-c2c(-c3ccc4c(c3)OCCO4)[nH]c3c2c(=O)n(C)c(=O)n3C)c1O | inactive: 133% |
| Cc1cc(-c2ccc(C)c(S(=O)(=O)N3CCC(C)CC3)c2)on1 | inactive: 115% |
| CC(C)CC(=O)Nc1nc2c(s1)CC(C(C)(C)C)CC2 (stereo not given) | inactive: 136% |
| Cc1ccc2nsnc2c1S(=O)(=O)NC(C)(C)C | inactive: 96% |
| CCc1nn(CCCC(=O)N2CCN(c3cc(Cl)ccc3C)CC2)c(=O)c2cc3occc3n12 | inactive: 76% |
| COc1ccc(CC(=O)NC2CC(=O)N(c3cccc(F)c3)C2)cc1OC (stereo not given) | inactive: 78% |
| CCCC1CC(C)(c2csc(NCC)n2)OC1=O (stereo not given) | inactive: 112% |
| C=CS(=O)(=O)c1ccc(Oc2ccc(S(=O)(=O)C=C)cc2)cc1 | inactive: 108% |
| CCOC(=O)c1c(C)n(S(=O)(=O)c2ccc(C)cc2C)c2ccc(NS(=O)(=O)c3ccc(C)cc3C)cc12 | inactive: 115% |
| CCCS(=O)(=O)N1CCN(S(=O)(=O)CCC)CC1 | inactive: 105% |
| COc1ccccc1Nc1sc(C(=O)c2ccc3c(c2)OCO3)c(N)c1S(=O)(=O)c1ccccc1 | inactive: 83% |
| Cc1ccc(C2=Nc3ccccc3N(CC(=O)Nc3ccccc3F)C(=O)C2)cc1C | inactive: 83% |
| CCCCN1C(=O)c2[nH]nc(-c3ccccc3O)c2C1c1ccc(C(C)(C)C)cc1 (stereo not given) | inactive: 106% |
| CCC1Oc2ccc(C)cc2N(CC(=O)NCc2ccc(OC)cc2)C1=O (stereo not given) | inactive: 68% |
| CCN(CC)CCCNC(=O)Cc1ccc(NC(=O)N2CCCCc3ccccc32)cc1 | inactive: 71% |
| O=c1oc2ccccc2cc1-c1nnc(Nc2ccc(Cl)cc2Cl)s1 | inactive: 67% |
| O=C(Nc1cccc(Cl)c1)c1ccc2nc(CCc3ccccc3)oc2c1 | inactive: 73% |
| CCCn1c2ccccc2c2cnn(CC(=O)NCc3ccccc3Cl)c(=O)c21 | inactive: 120% |
